Experimental data taken from the supplement of paper PMC12067093, “Discovery and optimisation of a covalent ligand for TRIM25 and its application to targeted protein ubiquitination” (Chemical Science, 2025).
Targets with the largest changes are over-represented here; the source holds about 21,000 in all.

Compound: Cc1cc(ccc1-c1ccccc1)C(=O)N1CCCN(CC1)C(=O)CCl [compound 10]
Experiment: probe-labelled cysteine peptide fold change vs DMSO (competition) (log2 fold change); higher = less target engagement (more negative = stronger competition)
Details: THP-1, incubation time: 4 h
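Further: competitive profiling in live THP-1 cells: cysteine peptides tagged with an iodoacetamide desthiobiotin (IA-DTB) probe, intensity after compound treatment relative to DMSO-treated cells.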

Target: GALNT1_Q10472_442_NVETNQCLDNMAR (UniProt Q10472)
Chain of UniProt Q10472 (Q10472 whole entry, looked up): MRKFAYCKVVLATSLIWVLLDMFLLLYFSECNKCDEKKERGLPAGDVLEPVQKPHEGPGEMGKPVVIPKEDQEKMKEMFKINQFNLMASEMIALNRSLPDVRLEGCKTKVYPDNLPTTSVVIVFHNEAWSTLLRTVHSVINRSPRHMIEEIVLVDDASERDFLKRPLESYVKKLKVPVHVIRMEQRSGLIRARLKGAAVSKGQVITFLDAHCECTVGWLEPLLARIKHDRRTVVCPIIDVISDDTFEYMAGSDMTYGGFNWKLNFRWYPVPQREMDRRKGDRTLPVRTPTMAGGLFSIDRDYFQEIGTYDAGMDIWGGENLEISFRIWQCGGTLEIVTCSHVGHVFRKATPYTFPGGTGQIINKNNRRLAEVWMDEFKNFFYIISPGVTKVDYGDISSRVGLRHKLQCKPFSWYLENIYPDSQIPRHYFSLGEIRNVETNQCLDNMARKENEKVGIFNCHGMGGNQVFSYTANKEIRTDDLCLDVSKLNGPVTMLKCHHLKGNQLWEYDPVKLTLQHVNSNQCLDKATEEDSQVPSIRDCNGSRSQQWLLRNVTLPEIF
- probe-labelled cysteine peptide fold change (10 µM): -0.0578
- probe-labelled cysteine peptide fold change (50 µM): -0.249

Target: HCCS_P53701_66_AYEYVECPIR (UniProt P53701)
Chain of UniProt P53701 (P53701 whole entry, looked up): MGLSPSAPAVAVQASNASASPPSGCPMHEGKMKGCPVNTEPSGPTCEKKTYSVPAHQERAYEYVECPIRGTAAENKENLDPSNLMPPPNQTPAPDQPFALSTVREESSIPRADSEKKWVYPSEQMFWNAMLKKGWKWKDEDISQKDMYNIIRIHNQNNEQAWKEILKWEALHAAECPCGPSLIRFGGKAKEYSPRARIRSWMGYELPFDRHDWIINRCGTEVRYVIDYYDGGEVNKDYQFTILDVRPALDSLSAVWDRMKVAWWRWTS
- probe-labelled cysteine peptide fold change (10 µM): -0.239
- probe-labelled cysteine peptide fold change (50 µM): -0.53

Target: GTF3C6_Q969F1_178_SLELEEEEIQMNDSSNLSCEQEK (UniProt Q969F1)
- probe-labelled cysteine peptide fold change (10 µM): -0.0206
- probe-labelled cysteine peptide fold change (50 µM): 0.0042

Target: HADHA_P40939_322_TGIEQGSDAGYLCESQK (UniProt P40939)
- probe-labelled cysteine peptide fold change (10 µM): -0.303
- probe-labelled cysteine peptide fold change (50 µM): -0.276

Target: FN1_P02751_401_YSFCTDHTVLVQTR (UniProt P02751)
Chain of UniProt P02751 (P02751 whole entry, looked up): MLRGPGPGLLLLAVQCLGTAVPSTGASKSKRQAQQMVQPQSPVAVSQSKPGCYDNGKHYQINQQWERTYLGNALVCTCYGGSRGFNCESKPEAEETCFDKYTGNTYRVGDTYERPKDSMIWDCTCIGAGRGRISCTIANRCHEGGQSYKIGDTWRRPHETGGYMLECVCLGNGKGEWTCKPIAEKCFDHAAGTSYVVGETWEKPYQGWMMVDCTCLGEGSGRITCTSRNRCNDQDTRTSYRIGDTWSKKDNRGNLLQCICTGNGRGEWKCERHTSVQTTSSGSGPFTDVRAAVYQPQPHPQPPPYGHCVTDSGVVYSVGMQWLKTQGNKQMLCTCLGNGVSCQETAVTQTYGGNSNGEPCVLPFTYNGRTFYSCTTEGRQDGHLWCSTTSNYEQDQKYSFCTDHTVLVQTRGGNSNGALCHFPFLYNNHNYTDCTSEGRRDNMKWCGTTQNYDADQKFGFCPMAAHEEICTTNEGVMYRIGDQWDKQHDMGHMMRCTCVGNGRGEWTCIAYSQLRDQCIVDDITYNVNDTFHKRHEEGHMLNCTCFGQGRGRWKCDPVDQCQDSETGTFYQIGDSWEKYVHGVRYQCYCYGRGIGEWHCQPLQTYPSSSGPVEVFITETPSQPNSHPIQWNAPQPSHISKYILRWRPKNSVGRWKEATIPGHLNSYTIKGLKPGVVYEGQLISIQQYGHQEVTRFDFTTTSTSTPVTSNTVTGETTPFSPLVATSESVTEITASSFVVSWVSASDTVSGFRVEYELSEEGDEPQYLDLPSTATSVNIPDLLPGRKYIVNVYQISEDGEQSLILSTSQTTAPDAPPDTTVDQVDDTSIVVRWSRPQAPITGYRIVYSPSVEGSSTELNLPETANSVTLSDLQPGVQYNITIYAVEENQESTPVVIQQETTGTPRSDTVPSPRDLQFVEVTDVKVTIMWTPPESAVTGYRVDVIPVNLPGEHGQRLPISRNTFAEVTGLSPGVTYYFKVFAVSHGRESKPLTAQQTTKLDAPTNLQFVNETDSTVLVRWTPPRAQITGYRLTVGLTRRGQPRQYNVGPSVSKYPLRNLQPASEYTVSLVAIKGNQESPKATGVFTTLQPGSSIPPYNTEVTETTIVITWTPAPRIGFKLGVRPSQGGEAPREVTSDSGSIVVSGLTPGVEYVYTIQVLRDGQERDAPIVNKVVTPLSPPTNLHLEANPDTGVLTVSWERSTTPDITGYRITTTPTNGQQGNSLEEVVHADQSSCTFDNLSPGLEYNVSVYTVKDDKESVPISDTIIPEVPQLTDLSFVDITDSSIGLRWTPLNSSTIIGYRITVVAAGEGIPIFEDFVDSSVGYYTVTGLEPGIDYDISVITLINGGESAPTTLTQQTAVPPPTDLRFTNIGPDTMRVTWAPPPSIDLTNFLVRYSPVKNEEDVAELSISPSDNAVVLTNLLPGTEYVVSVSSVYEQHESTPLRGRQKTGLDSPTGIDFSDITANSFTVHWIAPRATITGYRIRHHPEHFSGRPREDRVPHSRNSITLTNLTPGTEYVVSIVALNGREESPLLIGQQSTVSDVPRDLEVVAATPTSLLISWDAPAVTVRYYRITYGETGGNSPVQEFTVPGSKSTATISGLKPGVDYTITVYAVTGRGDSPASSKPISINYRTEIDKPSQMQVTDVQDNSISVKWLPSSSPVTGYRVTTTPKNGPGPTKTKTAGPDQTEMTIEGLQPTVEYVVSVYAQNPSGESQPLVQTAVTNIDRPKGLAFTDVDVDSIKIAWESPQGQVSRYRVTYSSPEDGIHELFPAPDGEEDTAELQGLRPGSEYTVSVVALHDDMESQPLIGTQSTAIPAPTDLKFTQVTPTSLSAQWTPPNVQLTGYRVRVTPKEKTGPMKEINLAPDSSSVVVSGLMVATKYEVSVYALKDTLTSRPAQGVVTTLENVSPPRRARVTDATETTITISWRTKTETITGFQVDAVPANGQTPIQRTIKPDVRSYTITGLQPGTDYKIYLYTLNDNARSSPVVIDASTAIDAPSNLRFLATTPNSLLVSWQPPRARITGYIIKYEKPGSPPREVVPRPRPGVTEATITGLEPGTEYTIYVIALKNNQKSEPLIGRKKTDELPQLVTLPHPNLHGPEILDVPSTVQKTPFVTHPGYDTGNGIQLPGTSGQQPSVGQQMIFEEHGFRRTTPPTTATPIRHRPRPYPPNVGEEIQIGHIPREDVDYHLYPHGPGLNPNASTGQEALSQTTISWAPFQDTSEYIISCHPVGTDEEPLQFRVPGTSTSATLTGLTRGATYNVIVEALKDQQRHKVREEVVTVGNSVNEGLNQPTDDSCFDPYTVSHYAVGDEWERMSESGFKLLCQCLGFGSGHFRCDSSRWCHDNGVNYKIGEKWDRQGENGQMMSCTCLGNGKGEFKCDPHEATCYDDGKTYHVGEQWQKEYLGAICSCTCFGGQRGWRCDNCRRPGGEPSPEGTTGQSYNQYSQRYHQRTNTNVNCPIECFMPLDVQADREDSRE
- probe-labelled cysteine peptide fold change (10 µM): -0.176
- probe-labelled cysteine peptide fold change (50 µM): -0.219

Target: GATAD2B_Q8WXI9_308_GPPKPGLVRTTTPNMNPAINYQPQSSSSVPCQR (UniProt Q8WXI9)
Chain of UniProt Q8WXI9 (Q8WXI9 whole entry, looked up): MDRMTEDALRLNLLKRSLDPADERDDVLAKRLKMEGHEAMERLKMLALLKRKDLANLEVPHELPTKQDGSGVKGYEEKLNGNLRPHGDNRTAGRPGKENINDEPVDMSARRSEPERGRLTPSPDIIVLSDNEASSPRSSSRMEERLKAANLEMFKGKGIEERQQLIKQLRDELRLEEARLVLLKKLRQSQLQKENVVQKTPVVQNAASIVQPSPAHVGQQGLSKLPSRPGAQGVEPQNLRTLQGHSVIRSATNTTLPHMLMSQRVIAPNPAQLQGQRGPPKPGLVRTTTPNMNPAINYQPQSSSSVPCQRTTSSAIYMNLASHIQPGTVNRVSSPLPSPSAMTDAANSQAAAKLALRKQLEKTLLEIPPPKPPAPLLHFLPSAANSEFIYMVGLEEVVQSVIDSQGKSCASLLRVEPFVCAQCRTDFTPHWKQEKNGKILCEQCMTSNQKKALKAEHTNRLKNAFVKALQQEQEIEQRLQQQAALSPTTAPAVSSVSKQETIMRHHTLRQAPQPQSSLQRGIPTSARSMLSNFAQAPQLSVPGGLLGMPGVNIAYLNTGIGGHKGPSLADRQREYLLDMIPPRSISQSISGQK
- probe-labelled cysteine peptide fold change (10 µM): -0.0711
- probe-labelled cysteine peptide fold change (50 µM): -1.45

Target: FMNL1_O95466_787_EQRPMEELSEEDRFMLCFSR (UniProt O95466)
Chain of UniProt O95466 (O95466 whole entry): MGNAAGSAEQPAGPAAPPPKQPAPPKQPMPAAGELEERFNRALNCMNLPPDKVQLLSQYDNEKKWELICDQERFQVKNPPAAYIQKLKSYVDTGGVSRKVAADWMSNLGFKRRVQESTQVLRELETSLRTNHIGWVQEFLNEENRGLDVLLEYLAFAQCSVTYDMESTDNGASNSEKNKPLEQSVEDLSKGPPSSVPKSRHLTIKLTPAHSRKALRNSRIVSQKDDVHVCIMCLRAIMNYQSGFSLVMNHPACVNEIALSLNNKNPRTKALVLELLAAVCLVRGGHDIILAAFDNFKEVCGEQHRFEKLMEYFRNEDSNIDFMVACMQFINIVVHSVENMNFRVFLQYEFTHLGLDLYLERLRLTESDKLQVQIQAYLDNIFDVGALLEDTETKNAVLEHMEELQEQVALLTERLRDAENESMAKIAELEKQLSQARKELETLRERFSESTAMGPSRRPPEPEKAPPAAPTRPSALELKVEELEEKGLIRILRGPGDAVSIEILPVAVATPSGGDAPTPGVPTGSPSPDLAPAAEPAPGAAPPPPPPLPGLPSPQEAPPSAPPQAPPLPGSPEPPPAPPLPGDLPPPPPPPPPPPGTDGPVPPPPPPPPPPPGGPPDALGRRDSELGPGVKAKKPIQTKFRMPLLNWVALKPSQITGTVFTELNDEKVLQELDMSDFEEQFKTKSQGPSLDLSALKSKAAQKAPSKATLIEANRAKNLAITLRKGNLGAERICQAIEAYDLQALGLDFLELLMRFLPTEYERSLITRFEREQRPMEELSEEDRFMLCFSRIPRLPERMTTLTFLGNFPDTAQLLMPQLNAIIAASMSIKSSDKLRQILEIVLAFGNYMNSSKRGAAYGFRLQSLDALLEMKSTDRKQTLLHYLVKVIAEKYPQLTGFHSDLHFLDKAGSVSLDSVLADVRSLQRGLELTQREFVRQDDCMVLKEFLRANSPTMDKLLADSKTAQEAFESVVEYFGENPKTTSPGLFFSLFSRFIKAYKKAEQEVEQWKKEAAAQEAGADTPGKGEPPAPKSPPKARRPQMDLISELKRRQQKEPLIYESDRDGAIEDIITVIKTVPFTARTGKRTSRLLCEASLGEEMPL
- probe-labelled cysteine peptide fold change (10 µM): -0.11
- probe-labelled cysteine peptide fold change (50 µM): -0.0488
